Consider 167 variants from the RNAGym collection of RNA variant scans (doi:10.1093/nar/gkz1192).

The source gives no read counts; variants with many changes may rest on few reads.

The labels stand for the following.
B1: CPEB3 Ribozyme (parent)
chain: UAACAGGGGGCCACAGCAGAAGCGUUCACGUCGCAGCCCCUGUCAGAUUCUGGUGAAUCUGCGAAUUCUGCUGUAUAUCUC

In the data set the parent is B1. The data set is described as follows: self-cleavage, relative activity (ratio to wild type); higher = more cleavage; in vitro, sequencing. In short, it runs like this: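 After error-prone PCR and barcoding, CPEB3 ribozyme mutant libraries were transcribed with T7 RNA polymerase at 37°C for 5 hours, then given 15 min with DNase I before an EDTA stop, and they cleaved during both steps. Reverse transcription with template switching preceded Illumina sequencing. Relative activity divides a variant's cleaved/total read fraction by the unmutated ribozyme's. At least 5 reads were required per variant, and three batches were averaged.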
In the case of U43C A56U A57G U74C, the self-cleavage turned out to be 0.39. The value for A45G U54C U58C U67C was 0.1; that for A45G U51A G55A G63A was 0.53; that for U43C U49C U69A was 0.08. For the variant U41G U51G U69C, the self-cleavage stood at 0.2. For C44G U54C A57G, the self-cleavage came to 0.15. Turning to A45G A57G U74C, the self-cleavage was found to be 0.86. Take U41C A65G U72C A77G: the self-cleavage was determined as 0.68. A45G G46C U51A U54C U67A: the self-cleavage was found to be 0.15. Turning to G42A A45G U49G, the self-cleavage turned out to be 0.24. Regarding A45U G63A U66A, the self-cleavage came to 0.3.

A45G U69A A75G: the self-cleavage worked out at 0.27.

As for A45U G53A U67A U72A, the self-cleavage was 0.23. Then U41C U69C U72C A77G, with 0.55; and U41A U54C U67G, with 0.08; and U41A U49C U58C U72C, with 0.16. On to A45G A56G U72C, for which the self-cleavage stood at 0.69.

On to A45U G52A C62A, for which the self-cleavage stood at 0.59. Then U41C A45C U49C U72A, with 0.09; and U41A U51A C62G, with 0.43; and A45C A57G U69C, with 0.17. The value for U43A A57G A65U U78C was 0.13. Then U41C G63U A64G, with 1.05. On to U41G U51A A56G A65U U66C U74C, for which the self-cleavage turned out to be 0.24. Then U43C U66C U72A, with 0.14. For U43C A64U A65G U67C, the self-cleavage was 0.05. The value for A45G U69C C81U was 0.39; that for U41G A57G A64G was 0.24. Then C44A U51C U78C, with 0.15. As to U43C G52A A57U C79G, the self-cleavage came to 1.02. The value for U43C A47U U72A U74A A75U was 0.09; that for U41A A47G U60C U80A was 0.11.

In the case of U43C U51G U54C U60C U67C U72A, the self-cleavage was determined as 0.02. The value for U43C U48A U69C was 0.52; that for U41C U60A U66C U76C was 0.4; that for U41C G42U A75U U80C was 0.2. Regarding U41A A57G U58C, the self-cleavage was 0.14. As for U43C U49C C81A, the self-cleavage is 0.44. Then A45C U51C U72C, with 0.22; and U41C U48C U76C, with 0.95; and U41C U43C C44U, with 0.27. The value for U41A A47U U49A U72A was 0.15; that for U43C U60G A65G U78A was 0.1; that for U43A U48C U80C was 0.97. Then A45U A56G U58C U72C, with 0.21.

On to U43A G52C C62A U80C, for which the self-cleavage was determined as 0.28.

As to G42C U49C U72C U80C, the self-cleavage turned out to be 0.16. Then U43A U54C U72A, with 0.46; and C44U G55A U58C U72G A75U U78C, with 0.11; and U41C U51A U74C, with 1.24.

As for U43A U54C A56G A57G U67C, the self-cleavage came to 0.08. Turning to U41C U58A C62U A64G, the self-cleavage turned out to be 0.38. Then A45U A57G G63A A64G, with 0.41; and U41C A45G A56U, with 0.39; and U41C U60C U67C U76A, with 0.36. The value for A45G U60C A64G was 0.99.

Take C44G U72C C81A: the self-cleavage amounted to 1.11. The value for U41G A47G A56U A64G U69C A77G was 0.2; that for A45G A56G U67A was 0.36; that for U41C U43A U74C A75G was 0.83.

Consider U43C U49C A75G, for which the self-cleavage was determined as 0.75. Then U43C A47U A64U U67C, with 0.09; and U41C A57G U58C, with 0.47; and U41C U58G C81U, with 0.5.

For U43A C50U A64G U66A, the self-cleavage was 0.16. The value for U43C A45G U54A C59G was 0.1; that for U43C U51A G73A was 1.27; that for U41A U48C U66A U72A was 0.07. Then U43C U49A U51C A77U, with 0.51; and A45G U51A G63A, with 0.77; and U43C A57G U74A, with 0.65. Then U43C A56G U67C, with 0.24; and A45G G53A A56U, with 0.21. In the case of U41C A47G U54C U72A, the self-cleavage was 0.64. The value for A45U A57G U72A was 0.19; that for U43C A56G A64G was 0.23; that for U41C U74C C81U was 1.29. Regarding A45U U48C C59A U78C, the self-cleavage came to 0.06. The value for A45G U48C U76A was 0.17; that for A45G U48A U60C A65G was 0.34. Then U43C U49A A56G U60C, with 0.12; and U41C C62U C71A, with 0.17; and G42A U43C A56G, with 0.13. Then A45G U48C A57G A77U, with 0.72; and A45G U49C U51G U58C U60A C81G, with 0.11. With A45G A47G U49C U51C U80C, the self-cleavage is 0.18. The value for U43C A64G A75G was 0.34; that for U41C U43A A45G was 0.31. The value for U41G U69A U80A was 0.07; that for U41C U43C U80C was 0.62; that for A45C U49A A64G was 0.37. Then A45G A47G C59U, with 0.21; and U41A U48C U72C, with 0.21. For A45G A56U U60C U80C, the self-cleavage is 1.16. Then A45G G46A U49C U78C, with 0.18; and U41A U49C G52U U69C U80C, with 0.07; and U43C U49C A57G G61A A77G, with 0.2.

Consider U41C G42A U48C, for which the self-cleavage came out at 0.24. As for U43C A64G A65U, the self-cleavage is 0.21. A45C U60C A64G: the self-cleavage was 0.19. Then U41C U51C U69A, with 0.85; and U41A U54C A57G C59A, with 0.15; and A45G U60C U69C, with 0.64. Then U41C U49C U51A A64G U72A, with 0.32; and U41C U49C G63U, with 0.54; and U41C G46A U48G U49C U54A, with 0.1.

Turning to U43C U54C U76C, the self-cleavage amounted to 0.31. The value for U43C U51A U60C U78A was 0.21; that for U41C C62G U72G was 0.13; that for U41C U72A A75G was 0.94. The value for U43C U48A A77U was 0.29.

For the variant U43A G46U U60G U69A, the self-cleavage amounted to 0.15. For the variant U41A U48C A77U, the self-cleavage stood at 0.34. Then U41C U74G U78C, with 1.25.

In the case of U43G G53A U66C, the self-cleavage is 0.18. The value for U43A U51C A65G U72A was 0.23; that for A45G U66C U80A was 0.35; that for U41A U43C U49A was 0.15.

For the variant U43C A65G A75G, the self-cleavage is 0.05. Turning to U43C U51A A56U C71U, the self-cleavage came out at 0.12. The value for A45G U49C A64U C71G was 0.07. The value for G42A U43A U48C A65G U80A was 0.18; that for U41A U43C U76A was 0.2. The value for U41A A47C U51G U72A was 0.29; that for U41C G52A U54C U60C U80C was 0.68. As to U43A C50U U66C U72A, the self-cleavage turned out to be 0.41. As for U41C U67C A75G, the self-cleavage came out at 0.3.

With A45G U49C U60A G63C U69C, the self-cleavage came to 0.07. Then U43A A45G U54A U74A, with 1.23. Regarding G42A A56G U72C U76A, the self-cleavage turned out to be 0.36.

Consider U41G A45U A57G, for which the self-cleavage came out at 0.22.

On to U41A U69A U76C, for which the self-cleavage was found to be 0.21. Take U41G U66C U78A: the self-cleavage is 0.29. Then A45G U54C U60C U69A, with 0.55.

For the variant U41C A47U U51A A56G, the self-cleavage is 0.41.

U43C U60A A64G: the self-cleavage was 0.35. The value for A45G A57G U69C was 0.42.

On to U41A U49A A56G U74A, for which the self-cleavage is 0.09. Then U41C U43A C59A U67A, with 0.27; and C44U U49A A57G U58A U67C, with 0.1. Regarding U43C A47G U51A U69C, the self-cleavage was determined as 0.22.

Regarding U41A U49C A56G U67C G70A U80C, the self-cleavage was determined as 0.09. The value for U41C U58C U78G was 0.24. The value for A45C U49A U67C was 0.44. Then U43A C62U U80C, with 0.2; and A45G A77U U80C, with 0.98; and A45G U60C A64U A65G U69C, with 0.09. For U41A U67A U72A A75G, the self-cleavage worked out at 0.15.

As to A45U G63A U69A, the self-cleavage came out at 0.14. A45G U51C A57G A64U: the self-cleavage worked out at 0.05.

With U43C A45U U48C, the self-cleavage was found to be 0.35. The value for U41C A65G U72C U80C was 0.54. Then A45G U48C A64C A77G, with 0.18. In the case of U41C U58A A64C U80C, the self-cleavage was 0.15. The value for U43G A64G A65C U67A U76A A77G was 0.05; that for U43G A47G U58A was 0.48; that for U43C A65G U72A U78A was 0.09. The value for A45U A64G U67C A75G was 0.66; that for A45G A56G C62A U72A was 0.38. Then U43G A64U U67C, with 0.16; and U41C C62G A77U, with 0.17. Consider U41C U43A A47G G61A, for which the self-cleavage was found to be 0.22. Then U43C U67G U74C, with 0.26; and G42A A47G A57G U66C A77G, with 0.03; and U41A A45G U76C, with 0.23. For the variant A45U G46A G52U, the self-cleavage was 0.1. Turning to U43C G53U U58C, the self-cleavage was 0.1.
